Hit rate of the full screen: of about 340,000 compounds, about 6,900 (2%) were called active. Cut-off read from the data, not from the text of the source: active = inhibition above about 30%; inactive = below that, where a call was filed. This is a selection; strong and weak results do not stand in their true shares. Where no call is shown, the source filed none.
Target: D(2) dopamine receptor (Homo sapiens) (UniProt P14416)
Test: HTS Assay for Allosteric Antagonists of the Human D2 Dopamine Receptor: Primary Screen for Antagonists; note: 0% is about no effect
Settings: HEK293 TREx D2 cells, calcium flux, dopamine EC80; at 10 µM; stronger effect = higher value
Procedure, shortened: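 Tetracycline-induced HEK293 TREx cells expressing D2 receptor forced-coupled to calcium signalling, loaded with no-wash calcium dye. Compounds added and calcium flux read 180 s, then dopamine added at EC80 and read a further 180 s.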

UniProt P14416, sequence (P14416 whole entry, looked up): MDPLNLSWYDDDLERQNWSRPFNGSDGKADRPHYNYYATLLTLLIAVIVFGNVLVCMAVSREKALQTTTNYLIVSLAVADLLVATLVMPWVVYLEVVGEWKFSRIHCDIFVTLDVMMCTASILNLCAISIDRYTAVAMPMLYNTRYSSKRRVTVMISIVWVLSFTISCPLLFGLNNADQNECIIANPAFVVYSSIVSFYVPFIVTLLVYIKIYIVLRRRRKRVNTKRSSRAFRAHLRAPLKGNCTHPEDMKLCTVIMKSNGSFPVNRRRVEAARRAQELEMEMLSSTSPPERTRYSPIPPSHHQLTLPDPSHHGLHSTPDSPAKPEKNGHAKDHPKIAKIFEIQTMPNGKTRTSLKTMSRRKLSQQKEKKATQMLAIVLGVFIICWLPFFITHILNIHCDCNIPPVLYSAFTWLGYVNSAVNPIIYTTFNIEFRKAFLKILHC

In order of rising inhibition:
1. CCn1c2ccccc2c2cc(NC(=O)COc3ccc(C)cc3C)ccc21  -24.4%
2. COc1ccc(C(=O)NCCn2cc(SCC(=O)Nc3ccc(C)cc3)c3ccccc32)cc1  -22.7%
3. Cc1ccccc1-n1nc(CO)c(C(=O)NCc2cccnc2)n1  -21.8%
4. COc1cccc(CNC(=O)C(CC(C)C)NS(=O)(=O)c2ccc3c(c2)oc(=O)n3C)c1 (stereo not given)  -18.6%
5. CCOc1ccccc1NC(=O)Cn1c(=O)n(Cc2ccco2)c(=O)c2sc3ccccc3c21  -16.9%
6. Cc1ccc2sc(N3CCN(C(=O)CCS(=O)(=O)c4ccc(Cl)cc4)CC3)nc2c1C  -15.1%
7. COc1ccc(OC)c(NC(=O)C2CCN(S(=O)(=O)c3ccc4c(c3)CC(C)N4C(C)=O)CC2)c1 (stereo not given)  -14.7%
8. CCOC(=O)c1ccc(N=C2SC(C(=O)Nc3ccccc3)CC(=O)N2C)cc1 (stereo not given)  -13.5%
9. COc1ccc(CNC(=O)C2(c3cccs3)CCOCC2)cc1  -13.5%
10. Cc1ccc(NC(=O)C(Cc2ccccc2)n2cccc2)cc1 (stereo not given)  -12.9%
11. CCN(C(=O)CCS(=O)(=O)c1cc2[nH]c(=O)c(=O)[nH]c2cc1C)c1ccccc1  -12.6%
12. Cc1ccc2oc(-c3ccc(NC(=O)c4oc5ccc(Cl)cc5c4C)cc3)nc2c1  -11.8%
13. Cc1c2cnn(CC(=O)N3CCCCC3)c(=O)c2c(C)n1Cc1ccc(F)cc1  -11.5%
14. COc1ccc(-c2c(C)c3ccc(O)c(CN4CCOCC4)c3oc2=O)cc1  -11.4%
15. CCC(Sc1nc2ncccc2[nH]1)C(=O)Nc1cccc(OC)c1 (stereo not given)  -11.2%
16. CCN(CC)c1ccc(C2C(C(N)=O)=C(C)Nc3nc(SCc4ccccc4Cl)nn32)cc1 (stereo not given)  -9.79%
17. Cc1cc(Nc2cccc(Cl)c2)nc2ccc(NC(=O)COc3ccc(Cl)cc3)cc12  -9.57%
18. COc1ccc(C)cc1NC(=O)c1ccc2c(=O)n3c(nc2c1)CCCCC3  -8.87%
19. Cc1ccc(NC(=O)c2ccc(C)c(S(=O)(=O)N3CCCCCC3)c2)cc1  -8.64%
20. COc1ccccc1CNC(=O)c1cc(S(=O)(=O)N2CCCC(C)C2)cn1C (stereo not given)  -8.05%
21. COc1cccc(C2C(C(N)=O)=C(C)Nc3ncnn32)c1 (stereo not given)  -7.78%
22. CCOc1ccc(C(c2c(O)cc(C)n(CCOC)c2=O)N2CCN(c3ccccc3)CC2)cc1 (stereo not given)  -6.24%
23. O=C(c1ccc2c(c1)N(Cc1ccc(Cl)cc1)C(=O)c1ccccc1S2(=O)=O)N1CCOCC1  -6.16%
24. O=C(CSc1nc2c(oc3ccccc32)c(=O)n1-c1ccccc1)Nc1ccc(F)c(Cl)c1  -5.24%
25. Cc1cccc(-c2nc3c4ccccc4nc(N4CCN(c5ccccc5F)CC4)n3n2)c1  -5.19%
26. COc1ccc(OC)c(CNC(=O)NCc2noc3ccc(C)cc23)c1  -4.65%
27. O=C(CC1Sc2ccccc2NC1=O)Nc1cccc(C(F)(F)F)c1 (stereo not given)  -2.87%
28. Cc1ccc(-c2cn3nc(N4CCCC(C(=O)Nc5ccc(F)cc5)C4)sc3n2)cc1 (stereo not given)  -2.73%
29. CCCCC(CC)CNC(=O)CCCCCn1c(=O)[nH]c2ccsc2c1=O (stereo not given)  -2.59%
30. O=C(CN1C(=O)c2cccnc2Sc2ccccc21)Nc1cc(F)ccc1F  -2.21%
31. CCOc1ccc(-c2cn3nc(CC(C)C)sc3n2)cc1  -1.74%
32. CC(C)c1ccc(NC(=O)c2cc3c(=O)[nH]c4ccccc4c3n2C)cc1  -1.59%
33. COc1ccccc1OCCCSc1nc(-c2ccc(C(C)(C)C)cc2)nc2cc(=O)[nH]n12  -1.22%
34. Cc1ccc(C)c(S(=O)(=O)c2cn(C)c3cc(N4CCCCC4C)c(F)cc3c2=O)c1 (stereo not given)  -0.644%
35. O=C(c1cnn(-c2ccc(F)cc2)c1-n1cccc1)N1CCN(c2ccccc2)CC1  -0.328%
36. COc1ccc(OC)c(CNC(=O)c2ccc(C)c(NC(=O)c3nsc4ccccc34)c2)c1  0.176%
37. Cc1ccc(-n2nc(C)c3c(C(=O)NCCc4ccc(S(N)(=O)=O)cc4)cc(C)nc32)cc1  1.27%
38. CCCCNC(=O)C1CCN(S(=O)(=O)CCC)CC1  1.65%
39. CCOC(=O)C1CCN(C(c2ccc(SC)cc2)c2c(O)cc(C)n(Cc3ccco3)c2=O)CC1 (stereo not given)  1.73%
40. COCCNC(=O)Nc1cc(C(=O)NCc2ccc(C(C)C)cc2)ccc1N1CCCC1  2.36%
41. Cc1ccc(CNC(=O)NCc2noc3ccc(C)cc23)cc1  2.5%
42. COc1ccc(NC(=O)Nc2cc(C(=O)NCc3ccc(C)cc3)ccc2N2CCCC2)cc1  2.86%
43. COc1cc(C2NC(=O)c3c(sc4c3CCN(C)C4)N2)cc(Br)c1OC(=O)c1ccc(C)cc1 (stereo not given)  3.55%
44. Cc1ccc(Cl)cc1NS(=O)(=O)c1ccc2oc(=O)c3ncn(C)c3c2c1  3.95%
45. CCc1ccc(NC(=O)CC2C(=O)N(c3ccc(F)cc3)C(=O)N2Cc2ccc(F)cc2)cc1 (stereo not given)  4.07%
46. CCc1cccc(C)c1NC(=O)Cn1cnc2c1c(=O)n(C)c(=O)n2C  4.4%
47. COc1ccc(-c2noc(N3CCC(C(=O)Nc4ccc(F)cc4Cl)CC3)n2)cc1  4.62%
48. CC(C)c1ccc(NC(=O)c2ccc(=O)n(Cc3ccccc3)c2)cc1  5.07%
49. CCc1ccc(-n2c(=O)c3ccccc3n(Cc3ccccc3C#N)c2=O)cc1  5.47%
50. Cn1c(=O)c2c(-c3ccc(Cl)cc3)n(Cc3ccc(Cl)cc3)cc2n(C)c1=O  5.77%
51. Cc1ccc(NC(=O)C2CCN(S(=O)(=O)c3ccc4c(c3)CCCC(=O)N4)CC2)cc1N(C)C  5.92%
52. COc1ccc(OC)c(NC(=O)C(C)n2c(=O)c(-c3ccccc3NC(C)=O)nc3ccccc32)c1 (stereo not given)  6.09%
53. COc1ccc(OC)c(NCc2cccn2-c2nnc(N3CCCCC3)s2)c1  7.14%
54. O=C(CSc1cn(CC(=O)N2CCCCC2)c2ccccc12)NCc1ccccc1Cl  7.4%
55. CCOc1ccc(OCC)c(NS(=O)(=O)c2cc(-c3cnc(C)o3)ccc2OC)c1  8.75%
56. CCCCN(C)CCCNC(=O)c1cn(CC)c2ccc(S(=O)(=O)N3CCc4ccccc4C3)cc2c1=O  9%
57. CCOC(=O)c1c(NC(C)=O)c2c3c(sc2n1Cc1cc(C)ccc1C)CCCC3  9.01%
58. COc1ccc(CNC(=O)Cn2ncc3c4ccccc4n(Cc4cccc(Cl)c4)c3c2=O)cc1  9.11%
59. COc1ccc(C)cc1NS(=O)(=O)c1ccc2oc(=O)c3ncn(C)c3c2c1  9.29%
60. Cc1ccccc1-c1nc(CN2CCC(C(=O)NC(C)C)CC2)c(C)o1  9.36%
61. COc1ccc(N2CC(NC(=O)COc3cccc(C)c3)CC2=O)cc1OC (stereo not given)  9.53%
62. CCCC(=O)Nc1ccc2oc(-c3ccc(O)c(Br)c3)nc2c1  9.97%
63. CCN1C(=O)c2ccccc2S(=O)(=O)c2ccc(C(=O)NCc3ccccc3OC)cc21  10.3%
64. COc1ccc(-c2cc(C)no2)cc1S(=O)(=O)Nc1c(C)cc(C)cc1C  10.4%
65. Cc1ccc(-n2nc(C)c3c(C(F)(F)F)cc(-c4cccnc4)nc32)cc1C  10.5%
66. CCC1CN(C(=O)N2CCC(C(=O)NCc3cccc(F)c3)CC2)c2cc(C)ccc2O1 (stereo not given)  11.5%
67. Cc1cccc(NC(=O)Cn2c(SCC(=O)NCc3ccccc3)nc3ccccc32)c1C  11.7%
68. O=C(NCCc1ccc(F)cc1)C(=O)NCC(c1cccs1)S(=O)(=O)c1ccc(F)cc1 (stereo not given)  12.6%
69. CCOc1ccc(NC(=O)c2c(NCc3cccs3)sc3c2CCC(C)C3)cc1 (stereo not given)  12.9%
70. O=C(NCCSCc1ccccc1)C1CCN(S(=O)(=O)Cc2ccccc2)CC1  12.9%
71. CCCCc1nn2c(=O)cc(COC(=O)CNC(=O)COc3ccc(C)cc3)nc2s1  13%
72. CCCN(CCC)C(=O)Cn1c(=O)n(-c2cccc(OC)c2)c(=O)c2c(C)c(C(=O)N(C)C)sc21  13.2%
73. COc1ccccc1NS(=O)(=O)c1cn(C)c(C)n1  13.2%
74. COC(=O)c1cc2sc(Cl)cc2n1Cc1c(C)cc(C)cc1C  13.4%
75. COc1ccccc1N(CC(=O)Nc1ccccc1C(F)(F)F)S(=O)(=O)c1ccc(C)cc1  14.1%
76. COCCCn1c(=O)c2sccc2n2c(CCCC(=O)Nc3cc(C)cc(C)c3)nnc12  14.3%
77. CCOc1ccc(NC(=O)CSc2nc3ccsc3c(=O)n2CCC(C)C)cc1  15.9%
78. Cc1oc2ccc(O)c(CN3CCCCCC3)c2c1C(=O)Nc1cccc(C(F)(F)F)c1  16.1%
79. CCC(O)c1nc2ccccc2n1Cc1cc(C)ccc1C (stereo not given)  16.3%
80. CCC1CCCCN1CCCNC(=O)c1[nH]c2ccccc2c1Sc1ccc(Cl)cc1 (stereo not given)  16.4%
81. Cc1ccc(C)c(N2CCN(C(=O)Cn3nc(C)c4sc5ccccc5c4c3=O)CC2)c1  17.6%
82. Cc1ccc2c(c1)C(=O)OC(C(=O)Nc1ncc(Cc3ccc(C(C)C)cc3)s1)C2 (stereo not given)  18.3%
83. Cc1ccc(Cn2c(CNS(=O)(=O)c3cccc([N+](=O)[O-])c3)nc3cccnc32)cc1  20.6%
84. Cc1ccc(N(CC(=O)N2CCN(c3ccc(Cl)cc3)CC2)S(=O)(=O)c2c(C)nn(C)c2C)cc1  21.2%
85. COc1ccc(-c2nc(CSCC(=O)NCCC(C)C)c(C)o2)cc1OC  22.4%

With `COc1ccc(CCNC(=O)CSc2nc3ccccc3o2)cc1` the inhibition was active: 39.2%.
For `CCC(C)(C)NC(=O)c1ccc2c(c1)N(CC(=O)NC1CCCC1)C(=O)C(C)(C)O2`, the inhibition was active: 62.3%.
For `OCCN1CCN(CCCN2c3ccccc3Sc3ccc(C(F)(F)F)cc32)CC1`, the inhibition was active: 59.7%.
For `NC(=O)C1CCN(S(=O)(=O)c2cccc(S(=O)(=O)N3CCCCC3)c2)CC1`, the inhibition was active: 70.4%.
In the case of `CC(C)N(c1ccccc1)c1ccc(NC(=S)NCCN(C)C)cc1`, the inhibition is reported as active: 82.5%.
With `Cc1cccc(NC(=S)N(CCCN2CCOCC2)Cc2ccccn2)c1` the inhibition was active: 39.6%.
`COc1cc(OC)c2ccc(=O)oc2c1C(CCN1CCN(c2ccccc2)CC1)c1ccc2c(c1)OCO2` (stereo not given) was tested, and the inhibition was active: 94%.
In the case of `CCCOC(=O)c1cccc(NC(=O)COc2ccc([N+](=O)[O-])cc2)c1`, the inhibition is reported as active: 33.3%.
For `O=C(NCc1cccnc1)c1ccc(-c2ccccc2[N+](=O)[O-])o1`, the inhibition was active: 85.3%.
With `O=C(C1CC1)N1CCc2cc(Br)cc(S(=O)(=O)NCCN3CCOCC3)c21` the inhibition was active: 39.9%.

From PubChem BioAssay AID485344 (National Center for Advancing Translational Sciences (NCATS), 2010)
